Molecules are shown by their SMILES. In all, about 50,000 compounds went through this assay and about 800 (1.6%) showed an effect of 50% or more. Some of the results follow.

For the experiment, the target named is Bcl-2-like protein 10 (Homo sapiens) (UniProt Q9HD36). The experiment is described as follows: TR3 peptide-Bcl-B binding displacers, biochemical primary FP assay, phenotype converters (AID 1240).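 Also: 0% = Bcl-B with tracer peptide and DMSO and 100% = tracer peptide lacking Bcl-B.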 The note with it: GST-Bcl-B / FITC-TR3 peptide fluorescence polarization; stronger effect = higher value; compound at 3.75 mg/L.
Sequence of UniProt Q9HD36 (Q9HD36 whole entry, looked up): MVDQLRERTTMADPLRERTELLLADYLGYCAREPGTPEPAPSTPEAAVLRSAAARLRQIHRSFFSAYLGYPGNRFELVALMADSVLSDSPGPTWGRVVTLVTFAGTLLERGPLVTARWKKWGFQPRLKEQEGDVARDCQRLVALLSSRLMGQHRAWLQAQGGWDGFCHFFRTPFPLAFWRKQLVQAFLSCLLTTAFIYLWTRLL
As for `O=C1C=C(c2ccccc2)CC(c2cccs2)C1n1cnc([N+](=O)[O-])c1` (stereo unspecified), the displacement was -4.9%.

Consider `CN(C)CCCNC(=O)CN(c1cccc(Cl)c1)S(=O)(=O)c1ccccc1`, for which the displacement is 0.4%.

With `CCOc1ccc2oc(-c3ccccc3)c(C(=O)N(C)C)c2c1`, the displacement came out at 6.9%.

With `O=C1NC(=O)N(c2ccc(Cl)cc2)C(=O)/C1=C\c1ccc(N2CCCC2)cc1`, the displacement stood at 71.4%.

Turning to `COc1ccc(C=C2C(=O)N(C)C(=O)N(C)C2=O)cc1OC`, the displacement was determined as 0.6%.

As to `CCOc1ccc2nc(SCC(=O)OC)[nH]c2c1`, the displacement is -12%.

On to `Cc1ccc(-c2cc(NC(=O)COc3ccc(Cl)cc3Cl)n[nH]2)cc1`, for which the displacement was 8.3%.

For `O=C1CC(NCCc2ccc(Cl)cc2)C(=O)N1c1ccc(Br)cc1` (stereo unspecified), the displacement was -6.5%.

Consider `COc1ccc(C(=O)Nc2cc(C)cc(C)c2)c(OC)c1`, for which the displacement was found to be 15.4%.

With `COc1cc(C=O)c(Br)cc1OCc1ccc(F)cc1`, the displacement was determined as 3%.

On to `O=C(NC(=S)Nc1nc(-c2ccccc2)cs1)c1ccccc1Cl`, for which the displacement is 8.4%.

For the compound `COc1ccc(NC(NC(=O)c2ccco2)C(=O)c2ccccc2)cc1` (stereo unspecified), the displacement was 13.2%.

For the compound `Cc1ccc(OCC(=O)Nc2ccc(-c3nc4ccccc4o3)cc2)cc1C`, the displacement is -10.9%.

In the case of `Brc1cccc(CN2CCN(C3CCCC3)CC2)c1`, the displacement is -15.8%.

On to `Cc1cc(=O)n2c([nH]c3ccccc32)c1C(=O)O`, for which the displacement came out at 14.1%.

On to `CC1=CC(C)C2(CO)COC(c3ccc4c(c3)OCO4)C1C2C` (stereo unspecified), for which the displacement came to 5.7%.

With `Cc1ccc(Cc2ccccc2C(=O)O)cc1Cl`, the displacement amounted to 6.3%.

Regarding `O=C(N/N=C/c1cccs1)c1cc(-c2ccc(Cl)cc2)n[nH]1`, the displacement came to 0.8%.

Regarding `CC(C)(O)C#Cc1ccc(C(=O)NCc2ccccc2)cc1`, the displacement is -2.3%.

Consider `CC(Oc1cccc(Cl)c1)C(=O)Nc1ccccc1C(=O)N1CCCCCC1` (stereo unspecified), for which the displacement is -3.8%.

As to `CCCC(C)NS(=O)(=O)c1c(C)cc(C)cc1C` (stereo unspecified), the displacement turned out to be 13.2%.

In the case of `CC1=C(C(=O)c2ccccc2)C(c2ccccc2)NC(=O)N1` (stereo unspecified), the displacement was 32.7%.

Turning to `COc1cc(OC)cc(C(=O)N2CCN(Cc3ccncc3)CC2)c1`, the displacement worked out at 2.3%.

Consider `COc1ccc(NC(=O)C2CCCN(CCCc3ccccc3)C2)cc1OC1CCCC1` (stereo unspecified), for which the displacement was -6%.

`O=C(/C=C/c1ccco1)Nc1ccc(Br)cn1`: the displacement stood at 11.4%.

Regarding `O=S(=O)(Nc1nc2ccccc2nc1N1CCCCC1)c1ccccc1`, the displacement was 15.9%.

As for `N#Cc1cc(C#N)c(SCC(=O)Nc2nccs2)nc1N`, the displacement was -4%.

Turning to `O=C(COc1ccccc1)N1CCN(C(=O)c2ccccc2F)CC1`, the displacement was -21.7%.

In the case of `CC(C)(C)c1cc(Br)ccc1OCC(=O)Nc1ccc2c(c1)OCCO2`, the displacement amounted to 4%.

As for `Cc1cccc2c(N=NC(=O)c3ccc(Br)cc3)c(O)n(C)c12`, the displacement was determined as 11.9%.

As for `COc1cc(C=C2C(=O)c3ccccc3C2=O)ccc1Oc1ccc([N+](=O)[O-])cn1`, the displacement was determined as 3.8%.

Consider `CCN(CC)C(=O)c1sc(NC(=O)c2cc(Cl)ccc2OC)c(C#N)c1C`, for which the displacement was found to be 4.7%.

As for `COc1cc(C=C2C(=O)N(C)C(=O)N(C)C2=O)ccc1OCc1ccc([N+](=O)[O-])cc1`, the displacement was -3.1%.

In the case of `CCOS(=O)(=O)/C=C/c1ccccc1`, the displacement amounted to 2.2%.

In the case of `CC1CCCN(C(=O)c2ccccc2NC(=O)c2ccc(Cl)cc2)C1` (stereo unspecified), the displacement is -4.5%.

`CCn1nnnc1-c1ccc(OC)c(S(=O)(=O)NCc2ccccc2)c1`: the displacement was determined as 2.5%.

On to `COc1ccc(CN2CCN(Cc3ccncc3)CC2)cc1`, for which the displacement amounted to 4.3%.

Take `Cc1nnc(NC(=O)COc2ccccc2)s1`: the displacement was -3.6%.

For the compound `Cc1nonc1OCCCNc1ccc([N+](=O)[O-])cc1Cl`, the displacement is 12.4%.

Consider `O=C(c1ccccc1Br)N1CCN(c2ccc(Cl)cc2[N+](=O)[O-])CC1`, for which the displacement was -10.8%.

As to `CCOC(=O)/C=C(\C)N1N=C(c2ccccc2)CC1c1cccc([N+](=O)[O-])c1` (stereo unspecified), the displacement was -5.7%.

Take `CC1=NN(c2ccccc2)C(=O)/C1=C\c1ccc(O)cc1`: the displacement is 4.3%.

Take `CCc1ccccc1NC(=O)c1cc2cc(Br)ccc2oc1=O`: the displacement stood at 2.8%.

Turning to `CCOc1ccc(N/C=C2\CCCCC2=O)c([N+](=O)[O-])c1`, the displacement is -6%.

As to `COc1ccc(C2Nc3ccccc3C(=O)N2c2ccccc2)cc1COc1ccccn1` (stereo unspecified), the displacement worked out at 7.5%.

`CCCCNCCCCOc1ccc(C)cc1`: the displacement was 7.5%.

As to `COc1ccccc1NC(=O)C1=C(C)NC(=O)NC1c1cccs1` (stereo unspecified), the displacement is -17.5%.

Take `CCc1ccc(N2C(=O)/C(=C/c3ccc(O)c(Cl)c3)C(=O)NC2=S)cc1`: the displacement amounted to 2.8%.

With `O=C(N/N=C/c1ccc(C(=O)O)cc1)C(=O)NC1CCCCC1`, the displacement is 6.6%.

With `CCOc1cccc(N2C(=O)CC(N3CCN(C)CC3)C2=O)c1` (stereo unspecified), the displacement was -6.2%.

As to `O=C(CNc1ccc(Cl)cc1)c1ccc(Br)cc1`, the displacement is 0.2%.

As for `Brc1cc2c(cc1/C=N/Nc1ccccc1)OCO2`, the displacement is -7.3%.

As for `CN1C(=O)/C(=C\c2cn(CCOc3ccc(Br)cc3)c3ccccc23)SC1=S`, the displacement was 3.5%.

On to `C=CCNC(=O)c1ccc(C(C)(C)C)cc1`, for which the displacement was 3.8%.

As for `COc1ccc(OC)c(NC(=S)NC(NC(=O)c2ccccc2Cl)C(Cl)(Cl)Cl)c1` (stereo unspecified), the displacement is -0.4%.

With `O=C(CN1CCN(CCN2C(=O)c3cccc4cccc(c34)C2=O)CC1)c1ccccc1`, the displacement is 15.6%.

As for `Cc1ccccc1/C=C1\C(=O)NC(=S)N(c2cccc(Br)c2)C1=O`, the displacement is 13.2%.

As for `O=c1c2ccccc2nc(-c2ccccc2)n1CCCn1ccnc1`, the displacement came to 0.5%.

Turning to `O=Cc1[nH]c2ccccc2c1Nc1ccc([N+](=O)[O-])cc1`, the displacement is -2.7%.

For the compound `COc1ccccc1/C=C1\C(=O)NC(=O)N(C(C)(C)C)C1=O`, the displacement is -6%.

In the case of `CC(C)c1ccccc1NS(=O)(=O)c1ccccc1[N+](=O)[O-]`, the displacement is -3.6%.

Consider `NC(=O)c1ccc(NC(=O)Nc2cccc3ccccc23)cc1`, for which the displacement amounted to 18.6%.

Regarding `COc1cccc(NC(=O)c2ccc(-c3ccccc3)cc2)c1`, the displacement turned out to be 8.2%.

Turning to `COc1cc(C(=O)Nc2c(C)cccc2C(=O)O)cc(OC)c1OC`, the displacement turned out to be 7%.

Take `O=C(Nc1cc(C(F)(F)F)ccc1Cl)c1nn2c(c1Br)NC(c1ccccc1)CC2C(F)(F)F` (stereo unspecified): the displacement stood at 8.1%.

Turning to `COc1ccc2c(c1OC)C(=O)N(c1cccc(Cl)c1)C2=O`, the displacement was -23.7%.

Regarding `O=C(Nc1ccc([N+](=O)[O-])cc1)c1cc2ccccc2o1`, the displacement was determined as 3.5%.

In the case of `COC(=O)C1=C(C)NC2=C(C(=O)CC(c3ccc(OC)c(OC)c3)C2)C1c1ccccc1OCc1ccccc1` (stereo unspecified), the displacement was found to be 12.2%.

As to `Cc1ccc(Sc2ccc(/C=C3/SC(=S)N(C)C3=O)o2)cc1`, the displacement was 3.3%.

`Cc1ccc(C)c(OCc2nnc(NC(=O)c3ccccc3)s2)c1`: the displacement is -10.9%.

Take `COc1ccc(N(CC(=O)NCC(C)C)S(C)(=O)=O)cc1Cl`: the displacement was -9.2%.

Take `O=C(Nc1ccc[n+](CC(=O)c2cc3ccccc3oc2=O)c1)c1ccccc1`: the displacement worked out at 16.9%.

For the compound `CC1C(C(=O)N(C=O)c2cccc([N+](=O)[O-])c2)C2C=CC1C21CC1` (stereo unspecified), the displacement came out at 0%.

As to `COc1cc(C(=O)n2nnc3ccccc32)c([N+](=O)[O-])cc1OC`, the displacement is -9.7%.

Regarding `COc1ccc(NC(=O)CCN2C(=O)/C(=C\c3cccc(OC)c3)SC2=S)cc1`, the displacement is -5.5%.

For `CCCCOc1ccc(N2C(=O)c3cccc4cccc(c34)C2=O)cc1`, the displacement was found to be 0.2%.

With `O=C(CSc1nc2ccc([N+](=O)[O-])cc2s1)Nc1ccccc1[N+](=O)[O-]`, the displacement amounted to 3%.

`CCOc1ccccc1N1CCN(C(=O)Nc2ccc(Cl)c(Cl)c2)CC1`: the displacement was -8.9%.

With `Cc1ccc(S(=O)(=O)n2cc(C=C3C(=O)NC(=S)NC3=O)c3ccccc32)cc1`, the displacement was 19.9%.

Regarding `O=C(N/N=C/c1ccc(O)c(O)c1)NC12CC3CC(CC(C3)C1)C2`, the displacement came to 7.9%.

On to `CCCC(C)NC(=O)Cc1ccccc1` (stereo unspecified), for which the displacement stood at 6.1%.

On to `CCCc1c(C)nc2c(Cl)cccc2c1SCC(=O)O`, for which the displacement is -1.7%.

For the compound `O=C1NCCN/C1=C\C(=O)c1cccc(Br)c1`, the displacement is -1.5%.

For the compound `Cc1cc(C)cc(NC(=O)C(=O)NCc2ccncc2)c1`, the displacement turned out to be 11.7%.

As for `O=C(c1ccc(F)cc1F)N1CCN(c2cc(N3CCOCC3)c(F)cc2[N+](=O)[O-])CC1`, the displacement was -0.4%.

For `COc1cc(C(=O)N2CCCc3ccccc32)c([N+](=O)[O-])cc1OC`, the displacement worked out at 12.3%.

As for `CCOC(=O)c1cnc2cc(-c3ccc(Br)cc3)nn2c1N`, the displacement was -1.8%.

Consider `CCOc1ccc(S(=O)(=O)N(CC(=O)Nc2cccc(Cl)c2C)c2ccc(C)cc2)cc1`, for which the displacement turned out to be 1.6%.

Consider `Oc1cccc(Nc2nc(-c3ccc(Br)cc3)cs2)c1`, for which the displacement came to 10.4%.

Consider `Cc1ccc(S(=O)(=O)C(NC(=O)c2ccccc2)=C(Cl)Cl)cc1`, for which the displacement was -6%.

On to `Cc1ccc(S(=O)(=O)N2CCN(S(=O)(=O)c3ccc(C)cc3)C3OCCOC32)cc1` (stereo unspecified), for which the displacement is -0.9%.

With `CCOc1cc(C2Nc3ccccc3NC3=C2C(=O)CC(c2ccc(OC)cc2)C3)ccc1OC(C)=O` (stereo unspecified), the displacement was -7.6%.

Consider `CC(C)C(=O)Nc1ccc(Br)cc1C(=O)O`, for which the displacement stood at 11.6%.

`CCOc1ccc(N2C(=O)CC(C(C)c3ccccc3)C2=O)cc1` (stereo unspecified): the displacement was found to be 1.1%.

On to `CCN(CC)c1ccc(/C=N/n2c(C)nnc2C)cc1`, for which the displacement is -10.7%.

In the case of `c1coc(CNc2nc(N3CCOCC3)nc(N3CCOCC3)n2)c1`, the displacement is -1.4%.

For `CCOC(=O)C1=C(C)N=c2s/c(=C\c3cccs3)c(=O)n2C1c1ccc(SC)cc1` (stereo unspecified), the displacement amounted to 32.3%.

For `CCCCc1c(C)nc2ccc(OC)cc2c1SCC(=O)O`, the displacement was -9.1%.

In the case of `CCn1c(=O)c(C(=O)Nc2cccc(O)c2)c(O)c2ccccc21`, the displacement was found to be 10.6%.

For the compound `O=C(CCNc1ccc2ccccc2c1)c1ccc([N+](=O)[O-])cc1`, the displacement turned out to be 3%.

Turning to `O=c1[nH]c(N2CCOCC2)nc2ncn(Cc3ccccc3)c12`, the displacement was 1.6%.

As for `CCOc1cc(C(=O)N2CCCC2)cc(OCC)c1OCC`, the displacement was -4.4%.

Regarding `O=C(O)CCCCC(=O)NC1=NCCS1`, the displacement was -0.3%.

Turning to `COCCOC(=O)C1=C(C)NC(=O)NC1c1ccc(Br)cc1` (stereo unspecified), the displacement amounted to 1.2%.

As for `COc1ccc(C(=O)N2c3cc(C)ccc3C(Nc3ccc(C)cc3)CC2C)cc1` (stereo unspecified), the displacement was -2.3%.

For the compound `Cc1ccc(S(=O)(=O)Nc2ccccc2C(O)C[N+](=O)[O-])cc1` (stereo unspecified), the displacement is -4.2%.

As to `Cc1ccc(NC(=S)NC(=O)/C=C/c2ccccc2)cc1NC(=O)c1ccccc1`, the displacement was found to be 16.8%.

In the case of `O=C(c1cc(N2CCOCC2)c(F)cc1[N+](=O)[O-])N1CCOCC1`, the displacement was found to be 8.3%.

With `Cc1ccc(C(C)C)c(OCc2nnc(NC(=O)c3ccc(Cl)cc3Cl)s2)c1`, the displacement was -9.3%.

In the case of `Oc1ccc(Cl)cc1-c1cc(-c2ccc(Br)cc2)n[nH]1`, the displacement is -3.2%.

Take `Cc1ccc(OCc2nnc(NC(=O)c3cccs3)s2)cc1`: the displacement worked out at 4.5%.

The values are drawn from PubChem BioAssay AID1240 (Sanford-Burnham Center for Chemical Genomics, 2008).
